Test results published in PubChem BioAssay AID1476 (National Center for Advancing Translational Sciences (NCATS), 2009).
Hit rate of the full screen: of about 200,000 compounds, about 4,500 (2.2%) were called active. The shares of active, inactive and inconclusive entries below differ from those in the screen. The call rests on the fitted dose curve; in most records, active means well fitted inhibition curve with a large enough effect; inconclusive means small, poorly fitted or top-dose-only effect, or effect the other way; inactive means flat fitted curve, though single readings scatter. A potency beside an inconclusive call is a rough fit, not a confirmed value.

Molecular target: Cruzipain (Trypanosoma cruzi) (UniProt P25779)
UniProt P25779, sequence (P25779 whole entry, looked up): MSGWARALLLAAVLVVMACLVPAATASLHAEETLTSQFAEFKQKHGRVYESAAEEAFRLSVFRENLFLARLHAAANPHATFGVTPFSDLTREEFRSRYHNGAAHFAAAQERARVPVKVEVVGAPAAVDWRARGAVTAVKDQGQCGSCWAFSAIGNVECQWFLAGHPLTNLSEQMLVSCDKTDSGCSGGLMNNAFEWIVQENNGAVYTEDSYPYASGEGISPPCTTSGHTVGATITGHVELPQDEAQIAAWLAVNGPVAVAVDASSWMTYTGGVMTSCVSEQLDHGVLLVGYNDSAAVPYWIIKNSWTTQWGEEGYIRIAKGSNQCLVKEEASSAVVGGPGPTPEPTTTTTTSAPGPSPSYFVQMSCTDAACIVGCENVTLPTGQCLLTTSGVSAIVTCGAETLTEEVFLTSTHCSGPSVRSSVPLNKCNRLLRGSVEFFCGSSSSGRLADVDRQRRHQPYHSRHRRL
Test: qHTS Assay for Promiscuous and Specific Inhibitors of Cruzain (without detergent); further: nearly all actives have a fitted effect of over 40% in size;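 on max response, negative = inhibition: plate controls were enzyme without inhibitor for no effect and buffer without enzyme for full effect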
Details: purified cruzain, Z-FR-AMC fluorescence, no detergent
In short: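 Detergent-free condition (0.00005% Triton X-100) in acetate buffer pH 5.5 with DTT. 1.5 nM enzyme and compound were pre-mixed 15 min, then 2 uM Z-FR-AMC substrate added; reaction progress from fluorescence change between first and third reads (60 s).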
Potency means the concentration at half of the fitted maximal effect; tags describe the fitted curve by direction and shape.

| Compound | Potency | max response, negative = inhibition |
| --- | --- | --- |
| CCOC(=O)c1c(-c2cccc([N+](=O)[O-])c2)csc1NC(=O)CCCOc1ccccc1 | active: 31.6 µM |  |
| C#CCOc1c(Cl)cc(/C=N/NC(N)=S)cc1OCC | active: 0.631 µM |  |
| O=C(c1ccncc1)N1CCC2(CCCN(c3ccccn3)C2)CC1 | inconclusive: 5.01 µM [activator, full curve] |  |
| Cc1ccc(-n2[nH]c3c4c(ccc3c2=O)C(=O)c2ccccc2C4=O)cc1 | inconclusive: 39.8 µM [inhibitor, single point] |  |
| Cc1ccc2nc(NC(=O)c3ccc(NS(=O)(=O)c4cccs4)cc3)sc2c1 | inconclusive: 31.6 µM [inhibitor, single point] |  |
| CCc1ccc(/C=C/C(=O)c2cc(Br)ccc(=O)c2O)cc1 | inconclusive: 25.1 µM [inhibitor, single point] |  |
| CNc1oc(C)nc1S(=O)(=O)c1ccc(C)cc1 |  | inactive: -5.13% |
| Cc1ccccc1-c1ccc2ncnc(NCc3cccs3)c2c1 |  | inactive: -5.12% |
| CCCS(=O)(=O)c1ncc(Cl)c(C(=O)Nc2scc(-c3ccccc3)c2C(=O)OCC)n1 |  | inactive: -26.6% |
| O=C(/C=C/Nc1ccc(F)cc1)c1ccc(Oc2ncccn2)cc1 | inconclusive: 31.6 µM [inhibitor, single point] |  |
| COc1ccccc1C1CN(c2ccc(F)cc2F)N=C1c1cccs1 (configuration not stated) | inconclusive: 25.1 µM [inhibitor, single point] |  |
| CC(C)c1ccc(CNc2nc(-c3ccco3)nn2S(=O)(=O)c2ccc3ccccc3c2)cc1 | active: 10 µM |  |
| CCOC(=O)C1CCN(c2ncnc3c2nnn3C)CC1 | inconclusive: 7.94 µM [activator, full curve, poor fit] |  |
| CCn1nc(C)c(/C=N/NC(=O)c2ccc3c(c2)c(C)c(C)n3Cc2ccccc2)c1C | inconclusive: 39.8 µM [activator, single point] |  |
| COc1ccccc1C(=O)NCCc1nc2ccccc2n1C | active: 10 µM |  |
| CCc1ccc2[nH]c3nc(SCc4nnc(-c5ccc(C)cc5)o4)nnc3c2c1 | active: 12.6 µM |  |
| CC(CCN)(CCN)[N+](=O)[O-] |  | inactive: 0.779% |
| Cc1ccc2nc(-c3ccc(N4C(=N)SC5CS(=O)(=O)CC54)cc3)sc2c1 (configuration not stated) | inconclusive: 31.6 µM [inhibitor, single point] |  |
| COc1ccc(N(CC(=O)NCCc2ccccc2)S(=O)(=O)c2ccccc2)c(OC)c1 |  | inactive: 22.3% |
| Cc1ccc(-n2c(SCC(=O)NCc3ccc(F)cc3)nc3c([nH]c4ccccc43)c2=O)cc1 | active: 15.8 µM |  |
| Cc1noc(NS(=O)(=O)c2ccc(NC(=O)c3cnc4scc(C)n4c3=O)cc2)c1C | inconclusive: 39.8 µM [activator, single point] |  |
| COC(=O)C1C(=O)C2=C(CC1C)NC(C)=C(C(=O)OC1CCCC1)C2c1ccc(N(C)C)cc1 (configuration not stated) | inconclusive: 31.6 µM [activator, single point] |  |
| CN1CCc2nc(SCC(=O)OC(C)(C)C)c(C#N)cc2C1 |  | inactive: 9.76% |

| Compound | Potency | max response, negative = inhibition |
| --- | --- | --- |
| CC(=O)C1=C(C)N(Cc2ccccc2)C(=O)N[C@H]1CCc1ccccc1 | inconclusive: 25.1 µM [inhibitor, single point] |  |
| COc1cc(NC(=O)c2cc3c(=O)oc4ccc(C)cc4c3s2)cc(OC)c1OC |  | inactive: 8.36% |
| Cc1ccc(C)c2[nH]c(=O)c(C(c3nnnn3C(C)(C)C)N3CC=C(c4ccc(F)cc4)CC3)cc12 (configuration not stated) | inconclusive: 39.8 µM [inhibitor, single point] |  |
| CCCCCCn1c(C)nc2c(c1=O)c1nc3ccccc3nc1n2/N=C/c1ccco1 | inconclusive: 39.8 µM [activator, single point] |  |
| Cc1cc(C)n2cc(COc3ccc4ccccc4c3)nc2n1 | inconclusive: 39.8 µM [activator, single point] |  |
| C=C1c2cccc(O)c2C(O)=C2C(=O)[C@]3(O)C(O)=C(C(N)=O)C(=O)C(N(C)C)C3C(O)C12 (some centres not stated) | inconclusive: 39.8 µM [activator, single point] |  |
| O=C1c2ccccc2C(=O)C12OC(c1ccccc1)C1(C(=O)c3ccccc3C1=O)C2c1cccc([N+](=O)[O-])c1 (configuration not stated) | active: 7.94 µM |  |
| CCCCNC(=O)C(c1ccc(OCC(=O)OC)c(C(=O)OC)c1)N(CCC1=CCCCC1)C(=O)CCCCCN1C(=O)NC(c2ccc(-c3ccccc3)cc2)C(C(=O)OCc2ccccc2)=C1C (configuration not stated) |  | inactive: -2.76% |
| O=C(NC(=S)NNS(=O)(=O)c1ccccc1)c1ccccc1[N+](=O)[O-] |  | inactive: -15.3% |
| CCCCNC(=O)Nc1nnc(-c2ccc(Cl)cc2)o1 | inconclusive: 25.1 µM [inhibitor, single point] |  |
| CCOC(=O)c1ccc(N2C(=O)c3n[nH]c(-c4cccs4)c3C2c2ccc(C)cc2)cc1 (configuration not stated) |  | inactive: -7.85% |
| COC(=O)c1ccc(CSc2nc3scc(-c4cccs4)c3c(=O)[nH]2)o1 | active: 15.8 µM |  |
| O=C(Cc1nc(-c2ccc([N+](=O)[O-])cc2)cs1)Nc1ccccc1 | inconclusive: 31.6 µM [inhibitor, single point] |  |
| CC(=O)Cc1nsc(NC(=O)c2ccc(-c3ccccc3Cl)o2)n1 | inconclusive: 39.8 µM [activator, single point] |  |
| CCOc1ccc(/C=C2\SC(=S)N(Nc3ccccc3)C2=O)cc1OC | inconclusive: 31.6 µM [inhibitor, single point] |  |
| CCOC(=O)c1ccccc1NC(=O)c1cn(-c2ccc(C)c(C)c2)c(=O)c2ccccc12 | inconclusive: 31.6 µM [inhibitor, single point] |  |
| O=c1oc2c(CN3CCCCC3)c(O)ccc2c2c1CCCC2 | inconclusive: 3.16 µM [activator, single point] |  |
| COc1ccc(Oc2ncc3ncc(=O)n(Cc4ccc(F)cc4)c3n2)cc1 | inconclusive: 39.8 µM [activator, single point] |  |
| O=C(Nc1c(Cl)cccc1Cl)c1ccc(-c2ccccc2)cc1 |  | inactive: -8.57% |
| COc1ccc(NC(=O)CC2C(=O)N(c3ccc(C)cc3)C(=O)N2CCc2ccccc2)cc1 (configuration not stated) |  | inactive: -4.56% |
| CC1(C)c2ssc(=S)c2-c2ccccc2N1C(=O)CSC1=NCCS1 | inconclusive: 39.8 µM [inhibitor, single point] |  |
| Cc1cc(C)cc(NC(=O)COc2ccc3c(C)c(Cc4ccccc4)c(=O)oc3c2)c1 | inconclusive: 5.01 µM [inhibitor, partial curve, poor fit] |  |
| CSc1cccc(N2C(=O)N(Cc3ccc([N+](=O)[O-])cc3)c3ccccc3S2(=O)=O)c1 | inconclusive: 39.8 µM [inhibitor, single point] |  |

| Compound | Potency | max response, negative = inhibition |
| --- | --- | --- |
| Cc1ccc2nc(/C(C#N)=C/c3cn[nH]c3-c3ccc(F)cc3)[nH]c2c1 | inconclusive: 31.6 µM [activator, single point] |  |
| CN(Cc1ccccc1)C(=O)c1cc2c(=O)n(C)c3ccccc3c2s1 |  | inactive: 3.44% |
| CCOC(=O)N1CCc2c(sc3c2c(=O)n(Cc2ccccc2)c(=O)n3Cc2c(F)cccc2Cl)C1 | inconclusive: 31.6 µM [inhibitor, single point] |  |
| Cc1c(Cl)cccc1Nc1sc(C(=O)c2ccccc2)c(N)c1S(=O)(=O)c1ccccc1 | inconclusive: 25.1 µM [inhibitor, single point] |  |
| COCCNC(=O)c1cc2n(n1)CCCN(Cc1ccc(C)cc1)C2=O |  | inactive: -9.04% |
| Cc1ccc(N2C(=O)S/C(=C/c3cn(C)c4ccccc34)C2=O)cc1 | inconclusive: 39.8 µM [inhibitor, single point] |  |
| Cc1cc(C)n2nc(CC(=O)NCc3ccccc3Cl)nc2n1 |  | inactive: 7.93% |
| COc1ccc(/C=N/NC(N)=S)cc1OC(=O)c1cccc2ccccc12 | active: 25.1 µM |  |
| O=C1O/C(=C\c2ccccc2)c2ccccc21 |  | inactive: -13% |
| COc1cccc(OCc2nc3ccccc3n2CCOc2ccccc2)c1 |  | inactive: -5.9% |
| O=C(Nc1ccc(/C=C/c2nc3ccccc3o2)cc1)c1ccc(F)cc1 | inconclusive: 31.6 µM [inhibitor, single point] |  |
| Cc1c(C(=O)NC2CCCCC2)sc2nc3ccc(N)cc3n12 | inconclusive: 31.6 µM [inhibitor, single point] |  |
| Cc1nc2ccn(Cc3ccco3)c(=O)c2cc1C(=O)N1CCN(c2ccccc2F)CC1 |  | inactive: 23.2% |
| Cc1ccnc(N2CCC(C(=O)NNC(=O)COc3cccc4ccccc34)CC2)n1 | inconclusive: 39.8 µM [inhibitor, single point] |  |
| CCOC(=O)c1c(C)[nH]c(C)c1S(=O)(=O)N1CCC(C(=O)NCc2ccccc2)CC1 |  | inactive: -4.74% |
| COC(=O)c1c(NC(=O)CCCOc2ccc(C)cc2)sc2c1C(C(=O)OC)CC2 (configuration not stated) | inconclusive: 31.6 µM [activator, single point] |  |
| COc1ccc(N2CCN(CCCNC(=O)c3cnn(-c4ccc(F)cc4)c3-n3cccc3)CC2)cc1 |  | inactive: -13.2% |
| O=C(N/N=C/c1cn(-c2ccccc2)nc1-c1ccc(F)cc1)c1ccc2c(c1)OCO2 | inconclusive: 39.8 µM [inhibitor, single point] |  |
| CCN(C(=O)COC(=O)c1ccccc1SCC(=O)NC1CCCCCCC1)C1CCS(=O)(=O)C1 (configuration not stated) | inconclusive: 31.6 µM [activator, single point] |  |
| Cc1nnc(-c2ccco2)c2cn(-c3cccc(Br)c3)nc12 | inconclusive: 31.6 µM [activator, single point] |  |
| O=C(CN1CCCc2ccccc21)N/N=C/c1c(O)ccc2ccccc12 | inconclusive: 31.6 µM [inhibitor, single point] |  |
